Assay results from the RNAGym collection of RNA variant scans (doi:10.1101/gad.245936.114).
Variants at the background level are over-represented here.

B1: tRNA (parent)
chain: CUCUCGGUAGCCAAGUUGGUUUAAGGCGCAAGACUUUAAUUUAUCACUACGAAAUCUUGAGAUCGGGCGUUCGACUCGCCCCCGGGAGAUUUUUUCCUCGAGCAA

Variants of: B1
Test: nonsense suppression (GFP-seq) (ratio to wild type); higher = more function; SUP4oc tRNA, yeast GFP reporter sort-seq
In short: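 Nonsense suppression (GFPSEQ) is the median GFP/RFP ratio of each sorting bin, weighted by the variant's estimated share of cells in that bin and expressed relative to the unmutated parent tRNA. Yeast strains carried genome-integrated variants of an ochre-suppressor tRNA from a library with ~3% random mutations, plus a galactose-driven GFP ochre reporter and RFP, and were grown in raffinose/galactose medium containing 80 mg/L adenine. Cells were sorted into GFP/RFP bins, each bin was Illumina-sequenced (phred ≥30), and variants were kept only with ≥100 reads and ≥30 cells.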

CUCUCGGUAGCCAUGUUGGUUUAAGGCGCAAGACUUUAAUUUAUCACUACGAAAUCUUGAGAUCGGGCCUUCGACUCGACCCCGGGAGAUUUUUUCCUCGAGCAA [A14U G69C C79A] and CUCUCGGUAGCCAUGUUAGUUUAAGGCGCAAGACUUUAAUUUAUCACUACGAAGUCUUGAGAUCGGGCGUUCGACUCGCCCCCGGGAGAUUUUUUCCUCGAGCAA [A14U G18A A54G] cannot be ordered by nonsense suppression: no more than 0.026 for the first, no more than 0.026 for the second.

CUCUCGGUAGCCAUGUUGGUUUAAGGCGCAAGAGUUUAAUUUAUCACUACGAAAUCUUGAGAUCGGGCGUUCGACUCGCCCCCGGGAGAUUUUUUCCUCGAGCAA [A14U C34G] and CUCUCGGUAGCCAUGUUGGUUUAAGGCGCAAGAGUUUAAUUUAUCACUACGAAAUCUUGAGAUCGGGCGUUCGACUCCCCCCCGGGAGAUUUUUUCCUCGAGCAA [A14U C34G G78C] cannot be ordered by nonsense suppression: no more than 0.026 for the first, no more than 0.026 for the second.

CUCUCGGUAGCCAUGUUGGUUUAACGUGCAAGACUUUAAUUUAUCACUACGAAAUCUUGAGAUCGGGCGUUCGACUCGCCCCCGGGAGAUUUUUUCCUCGAGCAA [A14U G25C C27U] and CUCUCGGUAGCCAUAUUGGUUUAAGGCGCACGACUUUAAUUUAUCACUACGAAAUCUUCAGAUCGGGCGUUCGACUCGCCCCCGGGAGAUUUUUUCCUCGAGCAA [A14U G15A A31C G59C] cannot be ordered by nonsense suppression: no more than 0.026 for the first, no more than 0.026 for the second.

Going from CUCUCGGUAGCCAUGUUGGUUUAAGGCGCAAGACUUUAAUUUAUCACUACGAACUCUUGAGAUCGGGAGUUCCACUCGCCCCCAGGAGAUUUUUUCCUCGAGCAA [A14U A54C C68A G73C G84A] to CUCUCGGUAGCCAUGUUGGUUUAAGGCGCAAGACUUUAAUUUAUCACUACGAAAUCUUGAGAUCGGGCGUUCGACUCGCACCCGGGAGAUUUUUUCCUCGAGCAA [A14U C80A], the nonsense suppression falls from 0.202 to no more than 0.026.

CUCUCGGUAGCCAUUUUGGUUUUAGGCGCAAGACUUUAAUUUAUCACUACGAAAUCUUGAGAUCGGGGGUUCGACUCGCCCCCGGGAGAUUUUUUCCUCGAGCAA [A14U G15U A23U C68G] and CUCUCGGUAGCCAUGUUUGUUUAAGGCGCAAGACUUUAAUUUAUCACUACGAAAUCUUGAGAUCGGGCGUUCGACUCGCCCCCGGGAGAUUUUUUCCUCGAGCAA [A14U G18U] cannot be ordered by nonsense suppression: no more than 0.026 for the first, no more than 0.026 for the second.

CUCUCGGUAGCCAUGUUGGUUUAAGACGCAAGACUUUAAUUUAUCACUACGAAAUCAUGAGAUCGGGCGUUCGACUCGCCCCCGGGAGAUUUUUUCCUCGAGCAA [A14U G26A U57A] and CUCUCGGUAGCCAUGUUAAUUUAAGGCGCAAGACUUUAAUUUAUCACUACGAAAUCUUGAGAUCGGGCGUUCGACUCGCCCCCGGGAGAUUUUUUCCUCGAGCAA [A14U G18A G19A] cannot be ordered by nonsense suppression: no more than 0.026 for the first, no more than 0.026 for the second.

CUCUCGGUAGCCAUGUUGGUUUAAAGCGCAAGACUUUAAUUUAUCACUACGAAGUCUUGAGAUCCGGCCUUCGACUCGCCCCCGGGAGAUUUUUUCCUCGAGCAA [A14U G25A A54G G65C G69C] and CUCUCGGUAGCCAUGUUGGUUUAAGGCGCAAGACUUUAAUUUAUCACUACGAAAUCUUGAGAUCGGGCGUUCGACUCCCCCCCGGGAGAUUUUUUCCUCGAGCAA [A14U G78C] cannot be ordered by nonsense suppression: no more than 0.026 for the first, no more than 0.026 for the second.

CUCUCGGUAGCCAUGUUGGUUUAAGGCGCAAGACUUUAAUUUAUCACUACGAAAUCUUGAGAUCGAGCGUUCGACUCGCCCCCGGGAGAUUUUUUCCUCGAGCAA [A14U G66A] and CUCUCGGUAGCCAUGUUGGUUUAAGGCGCAAGACUUUAAUUUAUCACUACGAAAUCUUGAGAUCGGGCGUUCGACUCGCCCCCGGGAGGUUUUUUCCUCGAGCAA [A14U A89G] cannot be ordered by nonsense suppression: no more than 0.026 for the first, no more than 0.026 for the second.

CUCUCGGUAGCCAUGUUGCUUUAAGGAGCAAGACUUUAAUUUAUCACUACGAAAUCUUGAGAUCGGGCGUUCGACUCGCCCCCGGGAGUUUUUUUCCUCGAGCAA [A14U G19C C27A A89U] and CUCUCGGUAGCCAUGUUGGUUUAAGGCGCAAGACUUUAAUUUAUCACUACGAAAUCUUGAGAUCGGGCCUUCGACUCGCCCCCGGGAGAUUUUUUCCUCGAGCAA [A14U G69C] cannot be ordered by nonsense suppression: no more than 0.026 for the first, no more than 0.026 for the second.

CUCUCGGUAGCCAUGUUGGUUUAAGGCGCAAGACUUUAAUUUAUCACUACGAAAUCUUGAGAUCGGGCCUUCGACUCGCCCCCGGGUGAUUUUUUCCUCGAGCAA [A14U G69C A87U] and CUCUCGGUAGCCAUGUUGGUUUAAGACUUAAGACUUUAAUUUAUCACUACGAAAUCAUGAGAUCGGGCGUUCGCCUCGCCCCCGGGAGAUUUUUUCCUCGAGCAA [A14U G26A G28U C29U U57A A74C] cannot be ordered by nonsense suppression: no more than 0.026 for the first, no more than 0.026 for the second.

CUCUCGGUAGCCAUGUUGGUUUAAGUCGCAAGACUUUAAUUUAUCACUACGAAAUCUUGAGAUCGGGCGUUCGACUCACCCCCGGGAGAUUUUUUCCUCGAGCAA [A14U G26U G78A] and CUCUCGGUAGCCAUGUUGGUUUAAGGCGGACGACUUUAAUUUAUCACUACGAAAUCUUGAGAUCGGGCGUUCGACUCGCCCCCGGGAGAUUUUUUCCUCGAGCAA [A14U C29G A31C] cannot be ordered by nonsense suppression: no more than 0.026 for the first, no more than 0.026 for the second.

CUCUCGGUAGCCAUGUUCGUUUAAGGCGCAAGACUUUAAUUUAUCACUACGAAAUCUUGAGAUCGGGCGUUCGACUCGCUCCCGGGAGAUUUUUUCCUCGAGCAA [A14U G18C C80U] and CUCUCGGUAGCCAUGUUGGUUUAAUGCGCAACACUUUAAUUUAUCACUACGAAAUCUUGAGAUCGGGCGUUCGACUCGCCCCCGGGAGCUUUUUUCCUCGAGCAA [A14U G25U G32C A89C] cannot be ordered by nonsense suppression: no more than 0.026 for the first, no more than 0.026 for the second.

CUCUCGGUAGCCAUGUUUGUUUAAGGCGCAAGACUUUAAUUUAUCACUACGAAAUCUUGAGAUCGGGCGAUCGACUCGCCACCGGGAGAUUUUUUCCUCGAGCAA [A14U G18U U70A C81A] and CUCUCGGUAGCCAUGUUGGUUUAAGGCGCAAGACUUUAAUUUAUCACUACGAAAUCUUGAGAUCGGGCUUUGUACUCGCCCCCGGGAUAUUUUUUCCUCGAGCAA [A14U G69U C72G G73U G88U] cannot be ordered by nonsense suppression: no more than 0.026 for the first, no more than 0.026 for the second.

Variant CUCUCGGUAGCCAUGUUGGUUUAAGGCGCAAGACUUUAAUUUAUCACUACGAAAUCUUGACAUCGGGCGUUCGACUCGUCCCCGGGAGAUUUUUUCCUCGAGCAA [A14U G61C C79U] has a nonsense suppression of no more than 0.026.
